# Measured values as given in publication PMC4336329 (PLoS ONE, 2015).
# Out of some 310,000 compounds screened, about 2,200 (0.71%) showed an effect of 50% or more. Effects have a minus sign here. This is one part of the list.
# Target: human ether-à-go-go-related gene (hERG) potassium channel (human, UniProt Q12809)
# Assay: primary screen, population patch clamp on CHO cells stably expressing hERG
# human ether-à-go-go-related gene (hERG) potassium channel, sequence (Q12809 whole entry, looked up): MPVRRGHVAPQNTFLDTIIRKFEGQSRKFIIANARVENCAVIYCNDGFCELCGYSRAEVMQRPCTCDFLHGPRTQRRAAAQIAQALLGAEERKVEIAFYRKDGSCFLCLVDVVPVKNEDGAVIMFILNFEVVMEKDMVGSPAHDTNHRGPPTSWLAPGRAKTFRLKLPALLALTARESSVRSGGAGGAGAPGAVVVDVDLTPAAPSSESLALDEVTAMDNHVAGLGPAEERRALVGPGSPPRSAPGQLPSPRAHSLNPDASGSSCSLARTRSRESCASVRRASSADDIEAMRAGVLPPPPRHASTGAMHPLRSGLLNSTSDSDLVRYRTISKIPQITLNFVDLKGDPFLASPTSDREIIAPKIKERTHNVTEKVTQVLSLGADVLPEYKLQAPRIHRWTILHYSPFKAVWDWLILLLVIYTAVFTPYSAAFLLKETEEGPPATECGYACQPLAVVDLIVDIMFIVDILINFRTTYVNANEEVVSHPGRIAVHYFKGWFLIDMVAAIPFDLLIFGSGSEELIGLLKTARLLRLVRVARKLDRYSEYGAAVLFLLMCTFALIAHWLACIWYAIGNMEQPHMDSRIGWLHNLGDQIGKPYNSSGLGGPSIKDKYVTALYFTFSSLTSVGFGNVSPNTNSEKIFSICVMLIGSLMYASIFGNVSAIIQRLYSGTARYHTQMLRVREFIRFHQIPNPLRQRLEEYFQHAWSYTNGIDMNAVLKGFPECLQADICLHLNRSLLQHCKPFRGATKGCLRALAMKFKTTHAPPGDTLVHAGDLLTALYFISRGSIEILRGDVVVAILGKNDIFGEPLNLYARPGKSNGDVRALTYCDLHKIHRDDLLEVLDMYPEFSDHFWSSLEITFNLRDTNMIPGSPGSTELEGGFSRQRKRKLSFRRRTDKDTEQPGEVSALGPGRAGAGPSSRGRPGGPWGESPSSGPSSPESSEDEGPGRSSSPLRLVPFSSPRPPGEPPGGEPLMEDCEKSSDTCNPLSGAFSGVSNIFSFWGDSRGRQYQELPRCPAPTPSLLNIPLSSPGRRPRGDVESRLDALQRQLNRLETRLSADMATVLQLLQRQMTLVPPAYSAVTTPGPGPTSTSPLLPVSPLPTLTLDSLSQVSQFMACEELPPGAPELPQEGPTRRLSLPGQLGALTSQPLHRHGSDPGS
row,Structure (SMILES),"hERG current change (%, negative = inhibition) at 1uM [%]"
1,CCCOc1ccc(C2c3c(oc4ccccc4c3=O)C(=O)N2CCN(CC)CC)cc1OC (stereo not shown),-5.51
2,Cc1c(C(=O)N2CCCCC2)nn(-c2ccc(Cl)cc2)c(=O)c1C#N,3.42
3,CC(=O)c1ccc(NC(=O)N2CCCC(C(=O)c3ccc4c(c3)OCO4)C2)cc1 (stereo not shown),9.05
4,CCCN1CC(=O)N2C(c3cccc(OC)c3OC)c3[nH]c4ccccc4c3C[C@H]2C1=O (stereo partly shown),14.2
5,Cc1nn(Cc2ccc(Cl)c(Cl)c2)c(C)c1NC(=O)c1noc2c1CCCCC2,-2.73
6,COc1cccc(CN(C)C(=O)CN2C(=O)NC(c3ccccc3)(c3ccccc3)C2=O)c1,-1.29
7,CCC(=O)NC(c1ccccc1)c1nc2ccccc2[nH]1 (stereo not shown),20.8
8,CCNc1nc(NC(C)C)nc(Oc2ccc(=O)n(C)n2)n1,17.2
9,CC(=O)Nc1ccc(NC(=O)C(C)OC(=O)c2ccc(-n3cnnn3)cc2)cc1 (stereo not shown),10.1
10,CC(C)[C@@H](C(=O)N[C@@H](Cc1ccccc1)C(=O)O)N1C(=O)N2CCc3c([nH]c4ccccc34)[C@@]2(C)C1=O,9.64
11,Cc1ccc(CNS(=O)(=O)c2c(C)[nH]c(=O)[nH]c2=O)cc1,5.94
12,O=c1c2c(nc3c(-c4ccccc4)c[nH]n13)CCC2,21.1
13,C=CCn1c(O)c(N=NC(=O)CNC(=O)c2ccncc2)c2ccccc21,11.7
14,Cc1ccccc1N(CC(N)=O)S(C)(=O)=O,9.32
15,Cc1cc2c(cc1C)NC(CC(=O)NCc1ccccc1)C(=O)N2 (stereo not shown),4.14
16,CCOc1ccc2c(c1)-c1c(ssc1=S)C(C)(C)N2,9.76
17,CC(C)(Oc1ccc(Cl)cc1)C(=O)NC1CCSC1=O (stereo not shown),-1.99
18,O=C(/C=C/c1ccc(Cl)c(Cl)c1)NCc1ccco1,-0.137
19,Cc1ccc(NCc2nnc(SCC(=O)N(Cc3ccccc3)C(C)(C)C)o2)c(C)c1,-6.21
20,CCOC(=O)Cn1c(=O)oc2cc(S(=O)(=O)Nc3ccc(F)cc3)ccc21,0.832
21,CCN1CCN(CC(=O)Nc2cc(C(F)(F)F)ccc2OCCOC)CC1.O=C(O)C(=O)O,-70.9
22,Cc1ccc2[nH]c(=O)c(CN(CC3CCCO3)C(=S)NCc3ccco3)cc2c1 (stereo not shown),4.46

row,Structure (SMILES),"hERG current change (%, negative = inhibition) at 1uM [%]"
1,Cc1ccccc1NC(=O)c1ccc(-c2ccc(Cl)cc2Cl)o1,-3.94
2,CC(C)n1cc(-c2ccc(Cl)cc2)cc(C#N)c1=O,8.34
3,CCN(CC)C(=O)c1cnn(-c2ccccc2)c1NC(=O)c1ccccc1F,3.89
4,CC(=O)N1CCC(N(CCN2CCOCC2)C(=S)Nc2cccc(C)c2)CC1,17
5,C=CCN(c1ccccc1)S(=O)(=O)c1ccc2c(c1)N(C(C)=O)CCO2,6.08
6,COc1cc(CNC(=O)c2nc(Cn3nc(C)c(Br)c3C)no2)cc(OC)c1,-10.7
7,Cc1ccc(C(=O)Nc2ccsc2C(=O)O)cc1,16
8,CCOc1ccc2cc(S(=O)(=O)N3CCOCC3)ccc2c1,13.2
9,COc1ccc(C(C)=O)cc1COC(=O)Cn1cnc2ccccc2c1=O,10.8
10,O=C(Cn1nnc2c(cnn2-c2ccccc2)c1=O)NCc1cccs1,11.7
11,CCOC(=O)c1c(N)sc(-c2ccccc2)c1C,7.41
12,Cc1ccc(NC(=O)CNc2cc(S(=O)(=O)N3CCOCC3)ccc2NCC2CCCO2)cc1F (stereo not shown),15.1
13,CCCC(=O)N1CC(=O)Nc2ccc(C)cc2C1c1ccc(F)cc1 (stereo not shown),2.3
14,Cc1nn(-c2ccccc2)c(/N=C/c2ccc(O)cc2)c1-c1ccccc1,2.85
15,C=CCn1cc(-c2ccccc2)cc(C#N)c1=O,17.1
16,Cc1nn(CC(=O)OCC(=O)Nc2c(C(C)C)cccc2C(C)C)c(C)c1[N+](=O)[O-],10.5
17,Fc1cccc(-c2oncc2-c2nnnn2-c2ccc(Cl)cc2)c1,11
18,Cc1cc(/C=N/NC(=O)c2ccncc2)c(C)n1-c1cccc(C(F)(F)F)c1,12.2
19,COc1ccc(-c2noc(CSc3nc4ccccc4c(=O)n3-c3ccc(C)cc3)n2)cc1,11.7
20,Cn1ccc2c([N+](=O)[O-])cccc2c1=O,10.2
21,CCCCCSc1nc2c(c(=O)[nH]c(=O)n2C)n1C,6.72
